Source: the supplement of paper PMC8728848
This is one part of the list.

Tests used:
Experiment in all cases: glycan array binding signal (z-score within array); higher = stronger binding
Settings in all cases: glycan notation: IUPAC condensed, linker removed
[1] = molecular target: Gal(b1-4)GlcNAc(b1-6)GalNAc
Procedure, shortened: (§1)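 Glycan array binding is given as a within-array Z-score, which can be read as non-binding when negative. The arrays, 3228 of them, came from the Consortium for Functional Glycomics database and were retained only where the protein sequence was available. Z-scores were averaged across arrays of the same protein sequence at different concentrations or buffers and across linkers.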

[2] = molecular target: Gal(b1-4)GlcNAc(b1-6)[Gal(b1-3)]GalNAc
Procedure, shortened: as §1

[3] = molecular target: Gal(b1-4)GlcNAc(b1-6)[Gal(b1-4)GlcNAc(b1-3)]GalNAc
Procedure, shortened: as §1

Gal(b1-4)GlcNAc6P = molecular target: Gal(b1-4)GlcNAc6P
Procedure, shortened: as §1

Gal(b1-6)Gal = molecular target: Gal(b1-6)Gal
Procedure, shortened: as §1

Gal3S(b1-3)GalNAc = molecular target: Gal3S(b1-3)GalNAc
Procedure, shortened: as §1

Gal3S(b1-3)GlcNAc = molecular target: Gal3S(b1-3)GlcNAc
Procedure, shortened: as §1

[4] = molecular target: Gal3S(b1-3)[Fuc(a1-4)]GlcNAc
Procedure, shortened: as §1

Gal3S(b1-4)Glc = molecular target: Gal3S(b1-4)Glc
Procedure, shortened: as §1

Gal3S(b1-4)Glc6S = molecular target: Gal3S(b1-4)Glc6S
Procedure, shortened: as §1

Gal3S(b1-4)GlcNAc = molecular target: Gal3S(b1-4)GlcNAc
Procedure, shortened: as §1

[5] = molecular target: Gal3S(b1-4)[Fuc(a1-3)]Glc6S
Procedure, shortened: as §1

[6] = molecular target: Gal3S(b1-4)[Fuc(a1-3)]GlcNAc
Procedure, shortened: as §1

[7] = molecular target: Gal3S(b1-4)[Fuc(a1-3)]GlcNAc6S
Procedure, shortened: as §1

Gal3S4S(b1-4)GlcNAc = molecular target: Gal3S4S(b1-4)GlcNAc
Procedure, shortened: as §1

Gal3S6S(b1-4)GlcNAc = molecular target: Gal3S6S(b1-4)GlcNAc
Procedure, shortened: as §1

Gal3S6S(b1-4)GlcNAc6S = molecular target: Gal3S6S(b1-4)GlcNAc6S
Procedure, shortened: as §1

Gal4S(b1-4)GlcNAc = molecular target: Gal4S(b1-4)GlcNAc
Procedure, shortened: as §1

Gal4S6S(b1-4)GlcNAc = molecular target: Gal4S6S(b1-4)GlcNAc
Procedure, shortened: as §1

Gal6P(b1-4)GlcNAc = molecular target: Gal6P(b1-4)GlcNAc
Procedure, shortened: as §1

Gal6S(b1-3)GlcNAc = molecular target: Gal6S(b1-3)GlcNAc
Procedure, shortened: as §1

Gal6S(b1-3)GlcNAc6S = molecular target: Gal6S(b1-3)GlcNAc6S
Procedure, shortened: as §1

Gal6S(b1-4)Glc = molecular target: Gal6S(b1-4)Glc
Procedure, shortened: as §1

B1: GS7807E-bfa-538-23-538 (Bacteroides fragilis) (protein)
chain: TDSFESFNTNEAGFDNDSKKQDFNYYGIPLGIIQQGIYFNYDWGSGKNWPFQTMQNLGADLFSGYVHDFNPFNEGKNNSTYYMMDGWNGSTWDNTYGYIMPEVQKSETINEKDNIGFFGITKILKVELMHRLSDLYGPIVYTQFGSKTGSTPDTQQEAYKAFFNDLDTGIAKIREYQKANPDIESFAKFDILMPQGKRTFSEWIRFANSLRLRLAVRIAMADSKLAVAEAQKALTDEEGLLEGNDEVVAVSTSSGYTNPFGEINKAWGEVFMNANMESLLVGYEDPRMEKYFDKATGSDATSLIDYKGTYKGIRQGTGFSHKNYNGHSKSTITQQTDAVLMTPAEVWFLRAEAALRGWSSESVKDCYEKGVKASFAQWGAAGAEAYLESDRKPSDYVDAFKAANNVKAVNTLTPKWDDAAGNEDKLGRIITQKWLAMFPEGGEAWAEQRRTGYPRLFPVLVNQSEGTVDTNLGPRRLNFFVGIKTTNPEQYTQLVNALGGIDNCGTRLWWDTGRNF
B1 was tested, and the “glycan array binding signal (z-score)” value [1] was 0.465, the “glycan array binding signal (z-score)” value [2] was 0.197 and the “glycan array binding signal (z-score)” value [3] was 0.123. For the same binder, the “glycan array binding signal (z-score)” value (Gal(b1-4)GlcNAc6P) was 0.764, the “glycan array binding signal (z-score)” value (Gal(b1-6)Gal) was -0.094 and the “glycan array binding signal (z-score)” value (Gal3S(b1-3)GalNAc) was -0.562. The “glycan array binding signal (z-score)” value (Gal3S(b1-3)GlcNAc) was -0.514, the “glycan array binding signal (z-score)” value [4] was -0.053 and the “glycan array binding signal (z-score)” value (Gal3S(b1-4)Glc) was -0.489. The “glycan array binding signal (z-score)” value (Gal3S(b1-4)Glc6S) was -0.065, the “glycan array binding signal (z-score)” value (Gal3S(b1-4)GlcNAc) was -0.438 and the “glycan array binding signal (z-score)” value [5] was 1.61. The “glycan array binding signal (z-score)” value [6] was -0.638, the “glycan array binding signal (z-score)” value [7] was -0.155 and the “glycan array binding signal (z-score)” value (Gal3S4S(b1-4)GlcNAc) was -0.693. The “glycan array binding signal (z-score)” value (Gal3S6S(b1-4)GlcNAc) was -0.604, the “glycan array binding signal (z-score)” value (Gal3S6S(b1-4)GlcNAc6S) was 0.097 and the “glycan array binding signal (z-score)” value (Gal4S(b1-4)GlcNAc) was -0.708. The “glycan array binding signal (z-score)” value (Gal4S6S(b1-4)GlcNAc) was -0.644, the “glycan array binding signal (z-score)” value (Gal6P(b1-4)GlcNAc) was 0.37 and the “glycan array binding signal (z-score)” value (Gal6S(b1-3)GlcNAc) was 0.347. For the same binder, the “glycan array binding signal (z-score)” value (Gal6S(b1-3)GlcNAc6S) was 0.077 and the “glycan array binding signal (z-score)” value (Gal6S(b1-4)Glc) was 0.571.
